# Laboratory results reported in PubChem BioAssay AID1347073 (National Center for Advancing Translational Sciences (NCATS), 2019).
# The campaign covered roughly 45,000 compounds. About 200 (0.44%) were called active. Inconclusive results (about 7%) are left out. Calls follow the shape of the dose curve; as a rule, active = well fitted activation curve with a large enough effect; inconclusive = small, poorly fitted or top-dose-only effect; inactive = no such curve, though single readings can be large or run the other way. This is one part of the list.
# Experiment: qHTS of TDP-43 Inhibitors: NCGC Sytravon Library Screen; also: 0% is about no effect; nearly all actives have a fitted effect of over 55% in size
# Settings: yeast TDP-43 toxicity rescue, BacTiter-Glo growth, 24 h; series mostly up to 46.1 µM; growth rescue (activation): at the top concentration
# Summary of the method: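 TDP-43-expressing yeast, pregrown in raffinose, seeded at OD600 0.02 in galactose medium with compound for 24 hr at 30 deg C. Growth read by BacTiter-Glo luminescence, so rescue of toxicity appears as activation.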
row,SMILES,growth rescue (activation)
1,C(=N\N1CCN(c2ccccn2)CC1)/C1=C(N2CCOCC2)C(=C/c2ccccc2)/CC1,inactive: 1.54%
2,O=C1N=c2ccccc2=C1c1sc(=S)n(CC2CCCO2)c1O (stereo not given),inactive: 22.1%
3,CCOC(=O)Cn1nc(NC(=O)COc2ccc(F)cc2)cc1C,inactive: 10.5%
4,CCCN(Cc1cc2ccccc2[nH]c1=O)C(=O)c1cccc([N+](=O)[O-])c1,inactive: 1.81%
5,Cc1ccc(OCC(=O)Nc2ccc(N3CCN(C(=O)c4ccc(C)cc4)CC3)cc2)cc1,inactive: -5.53%
6,Cc1ccc[n+](-c2nc3ccccc3nc2[N-]S(=O)(=O)c2ccccc2)c1,inactive: 8.31%
7,O=C(Nc1ccc(Cl)cc1)Nc1ccc(Br)cn1,inactive: 2.73%
8,COc1cc(C(=O)COC(=O)c2ccncc2)cc(OC)c1OC,inactive: -6.55%
9,CCC(=O)N1CCC1(C)C(=O)Nc1ccc(OC)c(OC)c1 (stereo not given),inactive: 6.4%
10,c1ccc(-c2cn3nc(-c4ccccc4)cnc3n2)cc1,inactive: 6.61%
11,Cc1cccc(NC(=O)CSc2nc(C3CC3)nc3ccccc23)c1,inactive: 19.1%
12,Cc1occc1C(=O)NC(C)C12CC3CC(CC(C3)C1)C2 (stereo not given),inactive: -64.4%
13,CCCNC(=O)Cn1c(=O)/c(=C/c2ccc(-c3ccc([N+](=O)[O-])cc3)o2)s/c1=C\C(=O)C(C)(C)C,inactive: 11.9%
14,Cc1ccc2[nH]c(CNC(=O)C3CCCCC3)cc2c1,inactive: 18.7%
15,O=C(Nc1ccc(N2C(=O)c3cccc4cccc(c34)C2=O)cc1)c1ccc(N2CCCCC2)c([N+](=O)[O-])c1,inactive: -1.52%
16,Cc1ccc(N2C(=O)CC(c3c[nH]c4ccccc34)C2=O)cc1 (stereo not given),inactive: 22%
17,O=C(COC(=O)c1ccc[nH]c1=O)NCCC1=CCCCC1,inactive: 3.35%
18,Cc1ccc(OCC(=O)Nc2nnc(-c3ccco3)s2)cc1,inactive: 19.3%
19,COCC(C)n1c(SCC(=O)NC2CCCCC2C)nc2ccccc2c1=O (stereo not given),inactive: -4.94%
20,CC1CCN(Cc2nnnn2-c2ccc(Cl)cc2)CC1,inactive: 9.13%
21,COc1ccccc1-c1cnc(C(O)c2ccc(SC)cc2)[nH]1 (stereo not given),inactive: 9.54%
22,Cc1ccc(Cl)cc1NC1=C/C(=N\S(=O)(=O)c2cccs2)c2ccccc2C1=O,inactive: 1.2%
23,COc1cc(OC)cc(N(C(=O)CNC(=O)c2ccco2)C(C(=O)NCC2CCCO2)c2ccccc2)c1 (stereo not given),inactive: -2.71%
24,c1ccc(CCN=C2CCCc3c2[nH]c2ccccc32)cc1,inactive: 18.4%

row,SMILES,growth rescue (activation)
1,Cc1ccc(OCCN(C)C(=O)CC2C(=O)NCCN2CC(C)(C)C)cc1 (stereo not given),inactive: 4.76%
2,O=C(CNc1cccc2ccccc12)N/N=C/c1ccc(C(=O)O)cc1,inactive: 20.3%
3,COc1ccc(/C=N/OCC(=O)N(Cc2ccccc2)c2ccccc2C(=O)O)cc1,inactive: 11.9%
4,Cc1cccnc1NC(=O)Nc1cccc2ccccc12,inactive: 34.8%
5,Cn1c(CCNC(=O)c2cc(COc3ccc(F)c(F)c3)on2)nc2ccccc21,inactive: 9.21%
6,O=C(N/C(=C/c1cccnc1)C(=O)N1CCOCC1)c1ccco1,inactive: -3.83%
7,Cc1sc2ncnc(N(C)CCc3ccccn3)c2c1C,inactive: 20.5%
8,CC1N/C(=C\C(=O)c2ccccc2)N(O)C1(C)C (stereo not given),inactive: 11.8%
9,O=C(Nc1cccc2ncccc12)c1cc([N+](=O)[O-])ccc1Cl,inactive: 0.52%
10,CC(=O)Nc1ccc(NC(=O)Cn2ccc([N+](=O)[O-])n2)cc1,inactive: -4.41%
11,CCN(CC)S(=O)(=O)c1c(OC)cc(C)c(Cl)c1C,inactive: 3.65%
12,COC(=O)c1ccc(CSc2ncnc3c2nnn3-c2ccc(F)cc2)o1,inactive: -0.716%
13,O=S(=O)(c1ccccc1F)N1CCN(CC(O)c2ccccc2)CC1 (stereo not given),inactive: 10.5%
14,CCC(=O)N1CCC1(C)C(=O)Nc1cc(OC)ccc1OC (stereo not given),inactive: -1.5%
15,C=CCN1C(=O)c2cccc3c(Br)ccc(c23)C1=O,inactive: 9.55%
16,COc1ccc(-c2cnc3c(NC=O)cc(-c4ccc(F)cc4)cn23)cc1OC,inactive: 21.6%
17,COc1ccc(CNC(=O)Cn2nc([N+](=O)[O-])c(Br)c2C)cc1OC,inactive: -0.679%
18,Cc1ccc(Cl)cc1NC(=O)CSc1sc2c(O)cc(=O)[nH]c2c1C#N,inactive: 7.15%
19,C=CCC1(CC=C)CCCN1Cc1nc(COc2ccccc2)no1,inactive: -4.18%
20,CCN(CC(=O)Nc1cccc(OC)c1)CC(=O)Nc1ccccc1C,inactive: -12.4%
21,Cc1ccc(S(=O)(=O)NCC(=O)OCC(=O)NCc2ccco2)cc1,inactive: 14.4%
22,COc1ccc(Cl)cc1N1C(=O)/C(=C/c2sccc2C)N=C1SCC(=O)NC1CC1,inactive: -0.503%
23,CN(Cc1nc2ccccc2[nH]1)C(=O)C1CCC(=O)N(CCc2cccc(F)c2)C1 (stereo not given),inactive: 13.3%
24,O=C(O)c1cccc(S(=O)(=O)Nc2ccc(Oc3ccccc3)cc2)c1,inactive: 32.1%

row,SMILES,growth rescue (activation)
1,O=C(COC(=O)c1cccc(F)c1)NCCC1=CCCCC1,inactive: 21.3%
2,O=C(NCCc1ccc(Cl)cc1)C1CCN(C(=O)c2ccc(F)cc2)CC1,inactive: -0.366%
3,CC(C)NC(=O)NC(=O)CSc1nncs1,inactive: 2.61%
4,COc1cc(NC(=O)CNC(=O)Cn2ccc3ccccc3c2=O)cc(OC)c1OC,inactive: -5.17%
5,CC/C(=N\Nc1ccnc2cc(Cl)ccc12)c1ccc(O)cc1,inactive: 6.22%
6,COC(=O)c1ccccc1OCCCCN1CC(C)OC(C)C1 (stereo not given),inactive: -3.57%
7,COc1ccc(/C=C/c2cc(C(=O)O)c3ccccc3n2)cc1,inactive: -32.5%
8,CCN1C(=O)/C(=C\c2cccc(OC(=O)c3ccco3)c2)SC1=S,inactive: -2.98%
9,COc1ccc(-c2nc(N3CCN(C)CC3)sc2-c2ccc(OC)cc2)cc1,inactive: -6.15%
10,CCOc1ncccc1C(=O)NCCc1ccc(S(N)(=O)=O)cc1,inactive: 14.1%
11,CC(=O)Nc1ccc(NC(=O)CSc2nnc(C)c(=O)n2N)cc1,inactive: 2%
12,CC(C)CNCC1OCc2ccccc2CO1,inactive: 27.4%
13,CC(C)(C)c1ccc(/C=C/C(=O)Nc2nncs2)cc1,inactive: 7.33%
14,O=C(COC(=O)c1ccc(Br)o1)NCC1CCCCC1,inactive: 14.8%
15,COc1cc(N)c(Cl)cc1C(=O)OCC(=O)NC(=O)NCc1ccco1,inactive: -23.6%
16,COc1ccc(CNC(=O)CSc2nnc(C)c(=O)[nH]2)cc1,inactive: 13.5%
17,OCCN1CCN(CC(O)COC(c2ccc(F)cc2)c2ccc(F)cc2)CC1 (stereo not given),inactive: 5.81%
18,Cc1ccc(C)c(S(=O)(=O)ON2C(=O)c3ccccc3C2=O)c1,inactive: -10.9%
19,COc1ccc(C(CC(=O)NC(C)(C)C)n2cccc2)cc1 (stereo not given),inactive: 21.7%
20,CC(C)(C)C(=O)c1cn(CC(=O)O)c2ccccc12,inactive: -37.2%
21,COc1ccc(C(=O)NC2CCN(CC(=O)N3CCCCC3)CC2)cc1,inactive: 9.87%
22,O=S(=O)(NCc1ccccc1)NCc1cccc(C(F)(F)F)c1,inactive: 15.2%
